Measured values reported in the supplement of paper PMC8285479.
Where “and” joins values, the source holds several entries; their conditions need not be identical. Equal values may be shown once. Where a name gives a salt, the structure may show the parent alone. ± gives the standard deviation of the averaged measurements. Over roughly 1,900 compounds, “normalised cell viability (NPI; 0 = phenylarsine oxide control, 1 = DMSO control)” has its median near 1; the lowest 2% begin near 0.039. Some of the results follow.

Tested on: NCI-H1944
Assay: normalised cell viability (NPI; 0 = phenylarsine oxide control, 1 = DMSO control) (fraction of DMSO control); NCI-H1944 is a non-small cell lung cancer line; higher = more viable cells (less compound toxicity)
Settings: 6 days
[1] = glucocorticoid arm: hydrocortisone 2.75 uM co-treatment, compound 1 µM
[2] = glucocorticoid arm: hydrocortisone 2.75 uM co-treatment, compound 5 µM
[3] = glucocorticoid arm: hydrocortisone 2.75 uM pre-treated 2 days and continued, compound 1 µM
[4] = glucocorticoid arm: hydrocortisone 2.75 uM pre-treated 2 days and continued, compound 5 µM
[5] = glucocorticoid arm: vehicle, compound 1 µM
[6] = glucocorticoid arm: vehicle, compound 5 µM
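Note: CTB read-out in 384-well plates, mean of triplicate wells, normalised per plate against 1 µM phenylarsine oxide and 0.1% DMSO, compounds added 24 h after seeding.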

Structure (SMILES)	normalised cell viability [1]	normalised cell viability [2]	normalised cell viability [3]	normalised cell viability [4]	normalised cell viability [5]	normalised cell viability [6]
CN(C)CCCN1c2ccccc2Sc2ccccc21 [Promazine hydrochloride]	1.001 ± 0.0085	0.9797 ± 0.0065	1.03 ± 0.021	1.017 ± 0.0058	0.9927 ± 0.0011	0.997 ± 0.013
Cc1cc(C(C)(C)C)c(O)c(C)c1CC1=NCCN1 [Oxymetazoline HCl]	0.9847 ± 0.0035	0.994 ± 0.01	1 ± 0.021	0.99 ± 0.029	0.9923 ± 0.0075	1 ± 0.014
Cc1cc(C(C)(C)C)c(O)c(C)c1CC1=NCCN1 [Oxymetazoline hydrochloride]	0.989 ± 0.011	0.965 ± 0.0062	1 ± 0.015	1.02 ± 0.084	0.9813 ± 0.0067	0.992 ± 0.016
C[N+]1(C)[C@@H]2C[C@@H](OC(=O)C(O)(c3cccs3)c3cccs3)C[C@H]1[C@@H]1O[C@@H]12 [Tiotropium Bromide hydrate]	1.03 ± 0.02	1.01 ± 0.011	1.03 ± 0.01	1.02 ± 0.036	1.007 ± 0.0058	0.988 ± 0.007
CSc1ccc2c(c1)C(N1CCN(C)CC1)Cc1ccccc1S2 (stereo not drawn) [Methiothepin mesylate]	1.01 ± 0.011	1.02 ± 0.011	1.013 ± 0.0058	1.05 ± 0.095	0.998 ± 0.002	1 ± 0.013
O=C(/C=C/c1ccc2ccccc2n1)c1ccncc1	1.01 ± 0.013	1.067 ± 0.0058	1.02 ± 0.01	1.02 ± 0.015	1.01	1.01 ± 0.01
O=C(O)CCC(NC(=O)c1ccccc1C(=O)O)C(=O)O [Phthalamoyl-L-glutamic acid trisodium]	0.9933 ± 0.0031	1.06 ± 0.021	0.869 ± 0.23	1.03 ± 0.025	0.997 ± 0.0052	1.006 ± 0.0063
CC(C)N(C[C@H]1O[C@@H](n2cnc3c(N)ncnc32)[C@H](O)[C@@H]1O)[C@H]1C[C@@H](CCc2nc3cc(C(C)(C)C)ccc3[nH]2)C1	1.001 ± 0.0085	1.073 ± 0.0058	0.993 ± 0.015	1.03 ± 0.01	0.995 ± 0.016	0.9977 ± 0.0025
C=Cc1c(C)c2cc3[nH]c(cc4nc(cc5nc(cc1[nH]2)C(C)=C5CCC(=O)O)C(CCC(=O)O)=C4C)c(C)c3C=C [Protoporphyrin IX]	0.9863 ± 0.0084	1.02 ± 0.029	1 ± 0.024	1.03 ± 0.017	0.9833 ± 0.0042	0.98 ± 0.009
Cc1ccc(O)c(N=Nc2ccccc2)n1	1.013 ± 0.0058	1.013 ± 0.0058	1.02 ± 0.029	1.01 ± 0.011	1.01	1.01 ± 0.013
CN1CCc2cc(O)c(O)cc2C(c2ccccc2)C1 (stereo not drawn)	1 ± 0.0087	1.02 ± 0.022	0.876 ± 0.23	1.01 ± 0.02	1.02	1.023 ± 0.0058
CCn1c2ccccc2c2cc(Nc3ccnc(NCCCN4CCOCC4)n3)ccc21	1.04 ± 0.01	1.04 ± 0.02	1.04 ± 0.01	1.01 ± 0.036	1.01 ± 0.015	0.438 ± 0.12
Cc1cn(C2C=CC(CO)O2)c(=O)[nH]c1=O (stereo not drawn) [2',3'-didehydro-3'-deoxythymidine]	0.995 ± 0.013	0.983 ± 0.033	0.989 ± 0.023	0.981 ± 0.017	0.9803 ± 0.004	0.983 ± 0.001
NC1(C(=O)N[C@@H](CCO)c2ccc(Cl)cc2)CCN(c2ncnc3[nH]ccc23)CC1	0.748 ± 0.021	0.613 ± 0.036	0.776 ± 0.011	0.672 ± 0.03	0.9227 ± 0.0084	0.701 ± 0.036
CC(CCc1ccccc1)NCC(O)c1ccc(O)c(C(N)=O)c1 (stereo not drawn) [Labetalol hydrochloride]	1.01 ± 0.011	1 ± 0.043	0.997 ± 0.015	0.9877 ± 0.006	1.007 ± 0.0058	1.004 ± 0.0098
CC(CCc1ccccc1)NCC(O)c1ccc(O)c(C(N)=O)c1 (stereo not drawn) [Labetalol HCl]	1.023 ± 0.0058	1.02 ± 0.029	1.03 ± 0.021	1.02 ± 0.022	0.994 ± 0.016	0.992 ± 0.016
Cc1oncc1C(=O)Nc1ccc(C(F)(F)F)cc1 [Leflunomide]	0.9777 ± 0.0085	0.913 ± 0.035	0.987 ± 0.0072	0.844 ± 0.19	0.9927 ± 0.0064	0.991 ± 0.0082
O=C(O)c1cccnc1Nc1cccc(C(F)(F)F)c1 [Niflumic acid]	–	1.01	1.02	–	1.02 and 1.01	–
CN(C)/N=N/c1[nH]cnc1C(N)=O [Dacarbazine]	0.979 ± 0.02	0.844 ± 0.016	1 ± 0.012	0.93 ± 0.014	1 ± 0.0095	0.9693 ± 0.005
CCCCCC[C@@H]([C@@H](C)O)n1cnc2c(N)ncnc21 [erythro-9-(2-Hydroxy-3-nonyl)adenine hydrochloride]	0.999 ± 0.001	0.992 ± 0.024	0.987 ± 0.012	0.997 ± 0.023	0.973 ± 0.0053	0.9777 ± 0.0055
C[N+](C)(C)CCCCCC[N+](C)(C)C [Hexamethonium bromide]	1.01 ± 0.01	1.01	1.013 ± 0.0058	1.03 ± 0.017	1.001 ± 0.009	1.003 ± 0.0058
C[N+](C)(C)CCCCCC[N+](C)(C)C [Hexamethonium dichloride]	1.002 ± 0.0076	0.991 ± 0.027	0.9997 ± 0.009	1.01 ± 0.019	0.9937 ± 0.0055	0.9913 ± 0.0011
CCCCCCCCc1ccc(-c2ccc(C(=O)O)cc2)cc1	0.994 ± 0.027	0.987 ± 0.012	0.891 ± 0.19	0.967 ± 0.013	1.027 ± 0.0058	1.02 ± 0.011
CC[N+](C)(C)Cc1ccccc1Br [Bretylium tosylate]	0.9943 ± 0.0032	1.01 ± 0.02	1.01 ± 0.015	1.01 ± 0.014	0.9903 ± 0.0035	1.007 ± 0.0058
Cn1cc(-c2ccc3ncc(Cc4ccc5ncccc5c4)n3n2)cn1	0.964 ± 0.012	0.946 ± 0.023	0.93 ± 0.018	0.896 ± 0.018	0.995	0.992 ± 0.015
Cc1cc(NC(=O)Nc2ccc(N(C)C)cc2)c2cc(F)cc(F)c2n1	1.017 ± 0.0058	1.02 ± 0.011	1.023 ± 0.0058	1.04 ± 0.026	1.001 ± 0.0081	0.992 ± 0.0036
